Data published in the supplement of paper PMC10498489.
Out of some 2,300 compounds screened, about 330 (14%) showed activity.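 Rule for the calls: active = median modified Z-score above 1.96; inactive = 1.96 or below.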 The list shows a part of the results, in another mix than the full data.

tested on: HepG2 Srxn1-GFP reporter cells (+30 nM CDDO-Me); test: Srxn1-GFP intensity median modified Z-score relative to plate median; higher = stronger NRF2 / oxidative stress reporter activation, active = hit call of the paper; details: 10 µM; exposure time: 24h
Procedure, shortened: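 Per-cell cytoplasmic GFP was measured on confocal images of formaldehyde-fixed, Hoechst-stained HepG2 Srxn1-GFP BAC reporter cells, excluding images with fewer than 100 cells. Before this, the cells (20,000 per well, 96-well plates) were co-exposed for 24 h to compound at 10 μM and an NRF2 activator at 30 nM with ≤0.1% DMSO, in three replicate plates. Each value is the median over replicates of the per-plate modified Z-score of GFP intensity. That score was scaled with 1.4826 × median absolute deviation.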

Structure (SMILES) | Srxn1-GFP intensity median modified Z-score
Cc1ccc(S(=O)(=O)NC(=O)NN2CCCCCC2)cc1 [euspeclibcmpd417] | inactive: -0.293
COc1c(O)cc2oc3cc(O)c(CC=C(C)C)c(O)c3c(=O)c2c1C=CC(C)C [euspeclibcmpd1547] | active: 34.4
COC(=O)C1=C(C)N=C(C)C(C(=O)OCC(C)C)C1c1ccccc1[N+](=O)[O-] (stereo not given) [euspeclibcmpd766] | active: 10.8
O=C(COc1ccc(Cl)cc1)N1CCN(Cc2ccc3c(c2)OCO3)CC1 [euspeclibcmpd1129] | inactive: -0.239
CCN(CC)CCNc1ccc(CO)c2sc3ccccc3c(=O)c12 [euspeclibcmpd550] | active: 13.8
COc1ccc(C(=O)NCc2ccc(CN(C)C)cc2)cc1OC | inactive: 0.376
COc1cc(C/C=C/c2ccccc2)c(OC)cc1O [euspeclibcmpd1352] | inactive: -0.408
COc1ccc(-c2oc3ccccc3c(=O)c2OC)cc1 [euspeclibcmpd1341] | inactive: 0.287
NCC1CCC(C(=O)O)CC1 (stereo not given) [euspeclibcmpd963] | inactive: 0.0193
CN1CCCN=C1COC(=O)C(O)(c1ccccc1)C1CCCCC1 (stereo not given) [euspeclibcmpd639] | inactive: -0.754
C[C@H]1[C@H](C)CC[C@]2(C(=O)O)CC[C@]3(C)C(=CCC4[C@@]5(C)C[C@@H](O)[C@H](O)[C@@](C)(CO)C5[C@H](O)C[C@]43C)[C@H]12 (stereo not given in full) [euspeclibcmpd1692] | inactive: -0.252
N#CC(c1ccc(Cl)cc1)c1c(Cl)cc(-n2ncc(=O)[nH]c2=O)cc1Cl (stereo not given) [euspeclibcmpd478] | active: 15
COc1cc(OC)c(C(=O)CCCN2CCCC2)c(OC)c1 [euspeclibcmpd1235] | inactive: -0.587
CCCN(CCC)C(=O)C(CCC(=O)O)NC(=O)c1ccccc1 (stereo not given) [euspeclibcmpd382] | inactive: -0.139
CC(=O)OC1C[C@@]2(C)C(C[C@@H](O)C3[C@]2(C)CC[C@H]2[C@H](C)[C@H](O)CC[C@]32C)C1=C(CCC=C(C)C)C(=O)O (stereo not given in full) [euspeclibcmpd136] | inactive: -0.739
COc1ccccc1N1CCN(CC(O)COc2cccc3ccccc23)CC1 (stereo not given) [euspeclibcmpd1202] | inactive: -1.09
CCOC(=O)C(C)(C)Oc1ccc(Cl)cc1 [euspeclibcmpd583] | inactive: 0.232
Cc1cc(=NC(=O)C2C(=O)c3ccccc3S(=O)(=O)N2C)[nH]o1 (stereo not given) [euspeclibcmpd552] | inactive: -0.344
CCC(NC(C)C)C(O)c1ccc(O)c(O)c1 (stereo not given) [euspeclibcmpd894] | inactive: -0.845
CCC(Cc1c(I)cc(I)c(N)c1I)C(=O)O (stereo not given) [euspeclibcmpd634] | inactive: 0.149
NCCCCNCCCN [euspeclibcmpd1502] | inactive: -0.202
CC(=O)C1CCC2C3=CC=C4CC(=O)CC[C@@]4(C)C3CC[C@]12C (stereo not given in full) [euspeclibcmpd815] | inactive: 1.45
CC(C)(C(=O)c1cccnc1)c1cccnc1 [euspeclibcmpd907] | inactive: 0.0206
CNCCCN1c2ccccc2Sc2ccccc21 | active: 2.13
CC(=O)N(O)CCCCCNC(=O)CCC(=O)N(O)CCCCCNC(=O)CCC(=O)N(O)CCCCCN [euspeclibcmpd84] | inactive: -1.71

Structure (SMILES) | Srxn1-GFP intensity median modified Z-score
CC1CCc2c(N3CCC(O)CC3)c(F)cc3c(=O)c(C(=O)O)cn1c23 (stereo not given) [euspeclibcmpd1083] | inactive: -0.148
O=c1c2ccccc2oc2ccccc12 [euspeclibcmpd2406] | inactive: -0.21
NC12CC3CC(CC(C3)C1)C2 [euspeclibcmpd17] | inactive: -0.0376
N=c1[nH]c(=O)c2ncn(COC(CO)CO)c2[nH]1 [euspeclibcmpd487] | inactive: 0.251
Cc1cc(=O)n(-c2ccccc2)n1C [euspeclibcmpd26] | inactive: 0.212
CC=C(C1=CC(=O)C(OC)=CC1=O)c1ccccc1 [euspeclibcmpd1693] | active: 3.26
CCCCCCCCCCCCCCCC(=O)NCCO [euspeclibcmpd1097] | inactive: -0.436
O=C(O)c1ccccc1Nc1ccccc1 [euspeclibcmpd1737] | inactive: -0.16
NS(=O)(=O)c1cc(C(=O)O)c(NCc2ccco2)cc1Cl [euspeclibcmpd135] | inactive: -0.176
COc1ccc2ccc(=O)oc2c1 [euspeclibcmpd2146] | inactive: 0.175
S=C1SCN(Cc2ccccc2)CN1Cc1ccccc1 [euspeclibcmpd1200] | active: 10
O=C(O)c1cc2cc(Cl)ccc2[nH]1 [euspeclibcmpd2020] | active: 1.97
CCn1c2cc(=N)ccc-2c2ccc(N)cc2c1-c1ccccc1 [euspeclibcmpd1148] | active: 4.33
Cc1cc(C2CCCCC2)n(O)c(=O)c1 [euspeclibcmpd64] | inactive: 0
O=C(CCCl)NCc1ccccc1 [euspeclibcmpd1227] | inactive: -0.57
NS(=O)(=O)c1cc2c(cc1Cl)N=CNS2(=O)=O [euspeclibcmpd57] | inactive: 0.155
CC1=CC2C(C(C)C)CCC(C)(O)C2CC1 (stereo not given) [euspeclibcmpd1360] | inactive: -0.571
CCC1(CC)C(=O)CC=NC1=O [euspeclibcmpd1119] | inactive: -0.354
NC(=O)c1ncn([C@@H]2O[C@H](CO)[C@@H](O)[C@H]2O)n1 [euspeclibcmpd267] | inactive: 0.45
CON=C(C(=O)NC1C(=O)N2C(C(=O)OCOC(=O)C(C)(C)C)=C(/C=C\c3scnc3C)CSC12)c1csc(=N)[nH]1 (stereo not given) [euspeclibcmpd753] | inactive: 0.022
O=C(Nc1ccc(C(=O)O)c(O)c1)c1ccccc1 [euspeclibcmpd776] | inactive: 0.292
CCCN1C(=O)/C(=C/c2ccc(-n3ccnc3)cc2)SC1=S | active: 9.18
CO[C@@]1(NC(=O)Cc2cccs2)C(=O)N2C(C(=O)O)=C(COC(N)=O)CS[C@@H]21 [euspeclibcmpd2151] | inactive: 0.193
CC1(C)CCC[C@]2(C)[C@H]3CC(=O)O[C@]3(C)CC[C@@H]12 [euspeclibcmpd1513] | active: 11.6
CC(=O)c1ccc2c(c1)N(CCCN1CCC(CCO)CC1)c1ccccc1S2 [euspeclibcmpd2041] | inactive: 1.15

Structure (SMILES) | Srxn1-GFP intensity median modified Z-score
CNCC[C@H](Oc1cccc2ccccc12)c1cccs1 [euspeclibcmpd986] | inactive: 1.68
CN(C)CC(=O)OCC(=O)C(O)C(O)C(O)C(O)O (stereo not given) [euspeclibcmpd2264] | inactive: -0.422
O=C(CCCN1CCC(O)(c2ccc(Br)cc2)CC1)c1ccc(F)cc1 [euspeclibcmpd889] | inactive: -0.326
COc1cc2c(cc1OC)C(=O)C(CC1CCN(Cc3ccccc3)CC1)C2 (stereo not given) [euspeclibcmpd685] | inactive: -0.76
CCCCC(CC)CN1CN(CC(CC)CCCC)CC(C)(N)C1 (stereo not given) [euspeclibcmpd1036] | active: 14.2
O=C1/C(=C/c2cccs2)CSC/C1=C/c1cccs1 | active: 13.2
C=C1CC[C@H](O)C/C1=C/C=C1\CCCC2(C)C1CCC2C(C)CCCC(C)C (stereo not given in full) [euspeclibcmpd353] | active: 2.95
Cc1[nH]c(=O)c(C#N)cc1-c1ccncc1 [euspeclibcmpd1241] | active: 2.87
Oc1ccc(Cl)c2c1CCC2 [euspeclibcmpd2398] | inactive: -0.113
O=C(Nc1ccccc1)c1ccccc1O [euspeclibcmpd8] | inactive: 0.747
OC[C@H]1O[C@@H](Oc2ccc(Cl)cc2)[C@H](O)[C@@H](O)[C@H]1O | inactive: 1.18
Cc1ncc([N+](=O)[O-])n1CC(O)CCl (stereo not given) [euspeclibcmpd897] | inactive: 0.383
COc1ccc(C2C(=O)c3ccccc3C2=O)cc1 [euspeclibcmpd444] | inactive: -0.0394
Cc1cccc(C)c1NC(=O)C1CCCCN1C (stereo not given) [euspeclibcmpd653] | inactive: -0.302
O=C(C=Cc1ccc(O)cc1)c1ccc(O)cc1O [euspeclibcmpd1984] | active: 13.1
Cc1c(C(N)=O)cc([N+](=O)[O-])cc1[N+](=O)[O-] [euspeclibcmpd1108] | inactive: -0.426
NC(=O)NC(=O)Cc1ccccc1 [euspeclibcmpd229] | inactive: -0.0115
COc1ccc(C(=O)c2ccc(C)cc2)c(O)c1 [euspeclibcmpd1274] | inactive: 0.455
CC(C)n1c(C=CC(O)CC(O)CC(=O)O)c(-c2ccc(F)cc2)c2ccccc21 (stereo not given) [euspeclibcmpd1968] | active: 3.35
COc1ccc(-c2cc(=O)c3c(O)cc(O[C@@H]4O[C@H](CO[C@@H]5O[C@@H](C)[C@H](O)[C@@H](O)[C@H]5O)[C@@H](O)[C@H](O)[C@H]4O)cc3o2)cc1O [euspeclibcmpd1128] | inactive: -0.0591
NC[C@H]1O[C@H](O[C@H]2[C@H](O)[C@@H](O[C@H]3O[C@H](CO)[C@@H](O)[C@H](N)[C@H]3O)[C@H](N)C[C@@H]2N)[C@H](N)C[C@@H]1O [euspeclibcmpd296] | inactive: 0.0584
O=C(OCC(O)CO)c1ccccc1N=c1cc[nH]c2cc(Cl)ccc12 (stereo not given) [euspeclibcmpd1054] | active: 4.38
C[C@]12CCC3c4ccc(O)cc4CCC3C1C[C@@H](O)[C@@H]2O (stereo not given in full) [euspeclibcmpd2155] | inactive: -0.253
O=NN(CCCl)C(=O)NC1CCCCC1 [euspeclibcmpd457] | inactive: 0.482
Cc1cccc(CN2CCN(C(c3ccccc3)c3ccc(Cl)cc3)CC2)c1 (stereo not given) [euspeclibcmpd177] | inactive: -0.119
